This is one part of the list. Most values come without repeats; read them as rough.
Columns and labels:
Experiment in all cases: cell count relative to DMSO control; melanoma cells; higher = more viable cells
Details in all cases: library dose: low library concentration; 72 h
[1] = tested on: COLO792
[2] = tested on: COLO800
[3] = tested on: COLO829
[4] = tested on: G361
[5] = tested on: IPC-298
[6] = tested on: IST-MEL1
[7] = tested on: LB2518-MEL
[8] = tested on: LOXIMVI
[9] = tested on: MEL-HO
[10] = tested on: MZ2-MEL
[11] = tested on: MeWo
[12] = tested on: RPMI7951
[13] = tested on: RVH-421
[14] = tested on: SkMel28
[15] = tested on: SkMel2
[16] = tested on: SkMel30
[17] = tested on: SkMel5
[18] = tested on: UACC257
[19] = tested on: UACC62
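Also: cell number obtained by counting DAPI-stained nuclei in high-throughput microscope images with image analysis software, screen run in 1,536-well plates.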

Row | Structure (SMILES) | cell count [1] | cell count [2] | cell count [3] | cell count [4] | cell count [5] | cell count [6] | cell count [7] | cell count [8] | cell count [9] | cell count [10] | cell count [11] | cell count [12] | cell count [13] | cell count [14] | cell count [15] | cell count [16] | cell count [17] | cell count [18] | cell count [19]
1 | Nc1nc(F)nc2c1ncn2[C@@H]1O[C@H](CO)[C@@H](O)[C@@H]1O [fludarabine] + C/C(O)=C(\C#N)C(=O)Nc1cc(Br)ccc1Br [LFM-A13] (first compound 0.2 µM, partner dose 2 µM) | 83.6% | 75.6% | 71.8% | 91.1% | 95.5% | 93.2% | 109% | 115% | 78.9% | 103% | 37.6% | 88.8% | 77.6% | 74.7% | 6.78% | 22.8% | 61% | 104% | 99.5%
2 | Cc1ccc(Nc2nccc(N(C)c3ccc4c(C)n(C)nc4c3)n2)cc1S(N)(=O)=O [Pazopanib] + O=C(Oc1ccc([N+](=O)[O-])cc1)N1CCC(C(O)(c2ccc3c(c2)OCO3)c2ccc3c(c2)OCO3)CC1 [JZL184] (first compound 0.4 µM, partner dose 1 µM) | 106% | 74% | 115% | 104% | 88.2% | 102% | 97% | 56.4% | 97.5% | 89% | 113% | 98.4% | 108% | 88.5% | 96% | 81.1% | 83.8% | 98.5% | 105%
3 | Cc1cc(Nc2cc(N3CCN(C)CC3)nc(/C=C/c3ccccc3)n2)n[nH]1 + Cc1cc(SCc2sc(-c3ccc(C(F)(F)F)c(F)c3)nc2C)ccc1OCC(=O)O [GW0742] (first compound 0.04 µM, partner dose 2 µM) | 125% | 85.7% | 64.6% | 106% | 103% | 105% | 116% | 64.5% | 115% | 92.3% | 86.4% | 103% | 107% | 92.7% | 99.2% | 79.4% | 100% | 122% | 98.8%
4 | O=C(/C=C/c1cccnc1)NCCCCC1CCN(C(=O)c2ccccc2)CC1 + Cc1cc(SCc2sc(-c3ccc(C(F)(F)F)c(F)c3)nc2C)ccc1OCC(=O)O [GW0742] (first compound 0.01 µM, partner dose 2 µM) | 53.3% | 45.9% | 79.2% | 9.39% | 44.3% | 76.2% | 79.3% | 83.4% | 46.2% | 42.4% | 97.6% | 105% | 43.4% | 87.4% | 28.6% | 105% | 87% | 92.5% | 111%
5 | Cc1cn(-c2cc(NC(=O)c3ccc(C)c(Nc4nccc(-c5cccnc5)n4)c3)cc(C(F)(F)F)c2)cn1 [nilotinib] + O=C(Oc1ccc([N+](=O)[O-])cc1)N1CCC(C(O)(c2ccc3c(c2)OCO3)c2ccc3c(c2)OCO3)CC1 [JZL184] (first compound 0.2 µM, partner dose 1 µM) | 104% | 109% | 116% | 106% | 94.9% | 106% | 102% | 97.9% | 97.9% | 92.5% | 97.3% | 98.9% | 117% | 99.2% | 96.9% | 88.5% | 90.4% | 96% | 104%
6 | CCCCCCCCc1ccc(CCC(N)(CO)CO)cc1 [fingolimod] + Cc1cc(SCc2sc(-c3ccc(C(F)(F)F)c(F)c3)nc2C)ccc1OCC(=O)O [GW0742] (first compound 2 µM, partner dose 2 µM) | 97.6% | 59.5% | 117% | 95.1% | 96.8% | 95.5% | 103% | 132% | 93.7% | 69.2% | 105% | 95.3% | 13.7% | 106% | 98.8% | 81.2% | 113% | 93.3% | 80.1%
7 | COc1cc([C@@H]2c3cc4c(cc3[C@@H](O[C@@H]3O[C@@H]5CO[C@@H](C)O[C@H]5[C@H](O)[C@H]3O)[C@H]3COC(=O)[C@H]23)OCO4)cc(OC)c1O [etoposide] + Cc1cc(SCc2sc(-c3ccc(C(F)(F)F)c(F)c3)nc2C)ccc1OCC(=O)O [GW0742] (first compound 0.02 µM, partner dose 2 µM) | 85.6% | 116% | 89.7% | 92.5% | 102% | 105% | 103% | 114% | 91.2% | 95.6% | 87% | 114% | 83.9% | 94.1% | 84.6% | 84.5% | 108% | 87.6% | 89.2%
8 | CCCS(=O)(=O)Nc1ccc(F)c(C(=O)c2c[nH]c3ncc(Cl)cc23)c1F + Cc1cc(SCc2sc(-c3ccc(C(F)(F)F)c(F)c3)nc2C)ccc1OCC(=O)O [GW0742] (first compound 0.08 µM, partner dose 2 µM) | 107% | 103% | 108% | 89.6% | 90.9% | 91.3% | 118% | 63.2% | 98.1% | 83.2% | 104% | 93.2% | 80.1% | 75.5% | 93.9% | 96% | 114% | 94.8% | 51.9%
9 | OCc1c[nH]c2ccccc12 [Indole-3-carbinol] + O=C(Oc1ccc([N+](=O)[O-])cc1)N1CCC(C(O)(c2ccc3c(c2)OCO3)c2ccc3c(c2)OCO3)CC1 [JZL184] (first compound 0.8 µM, partner dose 1 µM) | 101% | 156% | 107% | 95.4% | 106% | 104% | 108% | 97.2% | 105% | 93.4% | 120% | 112% | 94.4% | 86.9% | 102% | 104% | 94.5% | 75.9% | 83.6%
10 | Cn1cnc2c(F)c(Nc3ccc(Br)cc3Cl)c(C(=O)NOCCO)cc21 [selumetinib] + O=C(Oc1ccc([N+](=O)[O-])cc1)N1CCC(C(O)(c2ccc3c(c2)OCO3)c2ccc3c(c2)OCO3)CC1 [JZL184] (first compound 0.015 µM, partner dose 1 µM) | 93.3% | 172% | 141% | 97.8% | 70.3% | 94.7% | 70.2% | 156% | 104% | 106% | 90.9% | 98% | 76.3% | 75.5% | 84.7% | 101% | 93.9% | 85.3% | 88.8%
11 | C[C@@H](N)c1ccc(C(=O)Nc2ccnc3[nH]ccc23)cc1 + C/C(O)=C(\C#N)C(=O)Nc1cc(Br)ccc1Br [LFM-A13] (first compound 0.4 µM, partner dose 2 µM) | 89.7% | 249% | 91.9% | 97.4% | 93.8% | 101% | 105% | 97.5% | 107% | 70.9% | 92% | 75.7% | 97.6% | 73.2% | 107% | 93.6% | 73.7% | 78.7% | 78.5%
12 | OCc1c[nH]c2ccccc12 [Indole-3-carbinol] + Cc1cc(SCc2sc(-c3ccc(C(F)(F)F)c(F)c3)nc2C)ccc1OCC(=O)O [GW0742] (first compound 0.8 µM, partner dose 2 µM) | 86.2% | 65% | 103% | 98.7% | 104% | 105% | 98.7% | 141% | 112% | 103% | 95.1% | 92.9% | 109% | 113% | 99.7% | 88.6% | 115% | 109% | 98%
13 | CCCCCCCCc1ccc(CCC(N)(CO)CO)cc1 [fingolimod] + O=C(Oc1ccc([N+](=O)[O-])cc1)N1CCC(C(O)(c2ccc3c(c2)OCO3)c2ccc3c(c2)OCO3)CC1 [JZL184] (first compound 2 µM, partner dose 1 µM) | 93.2% | 83.2% | 90.4% | 109% | 105% | 101% | 110% | 63.8% | 88.7% | 95.1% | 103% | 87.1% | 67% | 97.6% | 98.1% | 97.2% | 88.8% | 71.8% | 85.1%
14 | CCCCCCCCCCCCCCCCCCOP(=O)([O-])OC1CC[N+](C)(C)CC1 [Perifosine] + C/C(O)=C(\C#N)C(=O)Nc1cc(Br)ccc1Br [LFM-A13] (first compound 0.4 µM, partner dose 2 µM) | 101% | 68.8% | 35.3% | 80.8% | 92.8% | 97.2% | 93.7% | 77.2% | 109% | 96% | 115% | 58.6% | 85.7% | 79.7% | 96.1% | 59.6% | 85.8% | 108% | 84.5%
15 | C[C@@H](Oc1cc(-c2cnn(C3CCNCC3)c2)cnc1N)c1c(Cl)ccc(F)c1Cl [Crizotinib] + C/C(O)=C(\C#N)C(=O)Nc1cc(Br)ccc1Br [LFM-A13] (first compound 0.2 µM, partner dose 2 µM) | 97.4% | 135% | 95.1% | 90.5% | 98.4% | 102% | 96.7% | 117% | 99.6% | 95.3% | 102% | 92.7% | 91.5% | 90.6% | 97.2% | 105% | 93.4% | 112% | 86.9%
16 | CNC(=O)c1cc(Oc2ccc(NC(=O)Nc3ccc(Cl)c(C(F)(F)F)c3)cc2)ccn1 [sorafenib] + O=C(Oc1ccc([N+](=O)[O-])cc1)N1CCC(C(O)(c2ccc3c(c2)OCO3)c2ccc3c(c2)OCO3)CC1 [JZL184] (first compound 0.4 µM, partner dose 1 µM) | 97.3% | 167% | 99.3% | 99.4% | 98.1% | 110% | 109% | 93% | 99.2% | 89.8% | 102% | 91.4% | 95.1% | 103% | 99.6% | 108% | 81.7% | 104% | 94.4%
17 | CCCCCCCCCCCCCCCCCCOP(=O)([O-])OC1CC[N+](C)(C)CC1 [Perifosine] + Cc1cc(SCc2sc(-c3ccc(C(F)(F)F)c(F)c3)nc2C)ccc1OCC(=O)O [GW0742] (first compound 0.4 µM, partner dose 2 µM) | 120% | 150% | 101% | 124% | 101% | 94% | 104% | 96.6% | 69.4% | 104% | 107% | 74.9% | 98.8% | 118% | 105% | 118% | 107% | 125% | 106%

— the supplement of paper PMC4604168 (melanoma cell lines)
